About 14,000 (4.5%) of roughly 310,000 compounds showed an effect of 50% or more. Effects have a minus sign here. This is one part of the list.
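Further: peak tail current of the secondary pulse compared with the same well before compound.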

The test deals with human ether-à-go-go-related gene (hERG) potassium channel (human, UniProt Q12809). Put plainly: primary screen, population patch clamp on CHO cells stably expressing hERG.
Chain of human ether-à-go-go-related gene (hERG) potassium channel (Q12809 whole entry, looked up): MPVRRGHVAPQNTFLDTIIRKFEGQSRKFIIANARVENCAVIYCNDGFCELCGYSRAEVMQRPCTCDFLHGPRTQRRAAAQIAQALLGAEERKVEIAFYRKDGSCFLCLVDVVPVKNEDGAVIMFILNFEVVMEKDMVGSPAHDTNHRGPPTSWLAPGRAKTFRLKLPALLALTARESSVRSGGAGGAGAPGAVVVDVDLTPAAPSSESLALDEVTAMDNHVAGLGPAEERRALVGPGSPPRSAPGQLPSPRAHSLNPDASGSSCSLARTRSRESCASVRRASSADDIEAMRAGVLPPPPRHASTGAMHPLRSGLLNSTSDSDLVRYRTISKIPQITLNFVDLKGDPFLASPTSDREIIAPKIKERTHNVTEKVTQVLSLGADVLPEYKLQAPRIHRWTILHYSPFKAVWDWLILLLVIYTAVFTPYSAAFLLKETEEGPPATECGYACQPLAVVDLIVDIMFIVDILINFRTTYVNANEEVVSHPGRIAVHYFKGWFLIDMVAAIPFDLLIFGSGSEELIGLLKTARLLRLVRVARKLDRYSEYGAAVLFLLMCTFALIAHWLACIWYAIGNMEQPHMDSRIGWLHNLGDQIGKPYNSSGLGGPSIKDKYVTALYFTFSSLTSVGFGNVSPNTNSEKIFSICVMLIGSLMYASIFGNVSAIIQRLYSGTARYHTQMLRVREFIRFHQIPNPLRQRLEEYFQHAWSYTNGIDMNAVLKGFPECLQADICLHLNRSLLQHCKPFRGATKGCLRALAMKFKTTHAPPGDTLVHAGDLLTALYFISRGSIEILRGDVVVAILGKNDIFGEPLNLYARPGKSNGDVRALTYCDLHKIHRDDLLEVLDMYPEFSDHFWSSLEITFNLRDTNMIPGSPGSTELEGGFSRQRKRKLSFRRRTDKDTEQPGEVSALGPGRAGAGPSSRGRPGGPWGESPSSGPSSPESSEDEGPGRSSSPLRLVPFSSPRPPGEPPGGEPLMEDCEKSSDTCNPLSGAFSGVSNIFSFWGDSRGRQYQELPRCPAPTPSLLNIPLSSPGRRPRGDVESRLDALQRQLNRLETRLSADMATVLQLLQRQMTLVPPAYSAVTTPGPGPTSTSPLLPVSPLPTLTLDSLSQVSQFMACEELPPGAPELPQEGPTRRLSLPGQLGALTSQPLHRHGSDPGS
Turning to `O=C(COC(=O)CSc1nnc(-c2ccc(Cl)cc2)o1)NCc1ccc2c(c1)OCO2`, the “hERG current change (%, negative = inhibition) at 10uM” value is given as -0.394%.
With `COc1ccc(SC[C@H](C)CN2CC[C@H](C)CCC2=O)cc1` the figure was -6.88%; with `CCCC(=O)NC(=S)Nc1ccccc1C(=O)OC`, 16.6%; with `O=C1c2ccccc2C(O)(c2ncc[nH]2)N1C1CCCCC1` (centres unmarked), 18%.
With `COc1ccc(-c2[nH]ncc2/C=N/NC(=O)c2cccc([N+](=O)[O-])c2)cc1OC` the figure was -62.1%; with `CN(C)/C=C(/C(=O)c1ccc(Cl)cc1)S(=O)(=O)c1ccc(Cl)cc1`, -33.5%; with `CN1C(=O)CC(N2CCC(c3nc4ccccc4s3)CC2)C1=O` (centres unmarked), -16%.
With `CCCCCC(=O)Nc1cccc(C2=NOC3(C2)C[C@H](C(N)=O)N(C(=O)CCCCC)C3)c1` (some centres unmarked), the “hERG current change (%, negative = inhibition) at 10uM” value was -70.7%.
As to `O=C(/C=C\c1cn(-c2ccccc2)nc1-c1cccs1)N1CCOCC1`, the “hERG current change (%, negative = inhibition) at 10uM” value is on record as -28.9%.
With `Cc1cc([N+](=O)[O-])nn1Cc1ccc(C(=O)N/N=C/c2ccc(O)cc2O)cc1` the figure was 5.1%; with `NS(=O)(=O)c1ccc(NC(=O)COC(=O)c2cc3ccccc3cc2O)cc1`, 13.8%; with `CC1CCCCN1C(=O)Cn1cnc2cc([N+](=O)[O-])ccc2c1=O` (centres unmarked), -15.1%.
With `O=C(O)CC(C(=O)NCc1ccccc1)C1CCCO1` (centres unmarked) the figure was -4.34%; with `CC(=O)N1CCN(c2ccc(NC(=O)c3ccccc3)cc2)CC1`, -5.46%; with `COc1ccc(CCNCC(O)COc2cccc(Br)c2)cc1OC` (centres unmarked), -67.3%.
With `Fc1ccccc1/C=N/n1c(COc2ccccc2)n[nH]c1=S` the figure was 5.3%; with `COCc1nnc(NC(=O)c2cc(Cl)ccc2OC)s1`, -5.28%; with `CCN(CC)CCn1c(-c2ccc(C)cc2)nc(=S)c2c1CC(C)(C)OC2`, -0.55%.
For `Cc1cc(C(=O)NC2CCC(C)CC2)c(C)o1` (centres unmarked), the “hERG current change (%, negative = inhibition) at 10uM” value amounted to 12.5%.
Take `Cc1ccc(CC2C(=O)N(c3ccc(F)cc3)C(=O)C2C)cc1` (centres unmarked): the “hERG current change (%, negative = inhibition) at 10uM” value was found to be 8.26%.
Regarding `O=C(NCCc1ccccc1)C(=O)Nc1ccc2c(c1)OCCO2`, the “hERG current change (%, negative = inhibition) at 10uM” value is listed as 30.2%.
Regarding `O=C(C1CCCCC1)N1CCN(C(=O)C2CCCCC2)CC1`, the “hERG current change (%, negative = inhibition) at 10uM” value is on record as -10.4%.
On to `CC(=O)n1cc(N(C(=O)CCl)c2ccc(Cl)cc2)c2ccccc21`, for which the “hERG current change (%, negative = inhibition) at 10uM” value is listed as -2.4%.
With `CCc1ccc(N2CC(C(=O)N3CCCCCC3)CC2=O)cc1` (centres unmarked) the figure was -10.7%.
With `O=C1CCCc2c1cc(C(=O)Nc1ccc(Cl)cn1)c(=O)n2-c1ccccc1` the figure was -60.1%.
With `COc1ccc(OC)c(C2=NOC(C(=O)Nc3cc(C)nn3-c3ccccc3)C2)c1` (centres unmarked) the figure was -21.5%; with `CCOC(=O)CCCNC(=O)COC(=O)[C@@H]1CCCN1S(=O)(=O)c1ccc(Cl)cc1`, -20.9%; with `CC(=O)N1CCN(c2ccccc2NC(=S)NC(=O)c2cc3ccccc3o2)CC1`, 19.3%.
Turning to `CC(C)c1ccc(NS(=O)(=O)c2ccc(-n3cccn3)cc2)cc1`, the “hERG current change (%, negative = inhibition) at 10uM” value is listed as 12.4%.
For `COc1ccc(Cc2c(O)nc(SCC(C)C)[nH]c2=O)cc1`, the “hERG current change (%, negative = inhibition) at 10uM” value stood at 5.08%.
With `CCS(=O)(=O)N1Cc2ccccc2CC1C(=O)NCCc1c[nH]c2ccccc12` (centres unmarked) the figure was -0.595%; with `CCc1cc(=O)oc2c3c(cc(OCC(=O)NCCCCCC(=O)O)c12)OC(C)(C)CC3`, 15.6%.
With `Cc1cccc(NC(=O)c2cc(NC(=O)c3ccco3)ccc2Cl)n1` the figure was -29.1%; with `CCc1ccccc1-n1c(SCC(=O)NC)nnc1-c1ccco1`, -0.236%; with `Fc1ccc(NC(=S)NCCc2ccccc2)c(F)c1F`, -1.12%.
In the case of `CCn1c(C)nc2cc(S(=O)(=O)C(F)(F)F)ccc21`, the “hERG current change (%, negative = inhibition) at 10uM” value was -4.49%.
With `O=C(NC1CCCCC1)C(c1ccc(F)cc1)N(C(=O)Cc1ccsc1)c1ccc(F)cc1` (centres unmarked) the figure was -5.35%; with `Cc1cc(C(F)F)n2ncc(C(=O)NCc3ccc(F)cc3)c2n1`, -17.7%.
With `COc1cccc(C2=NNC(=NCc3ccccc3)SC2)c1` the figure was -42.6%; with `CCC(=O)NCCCCNC(=O)CC`, 21.4%; with `CN(CCC#N)C(=O)COC(=O)c1nn(-c2ccccc2)c(=O)c2ccccc12`, 3.1%.
With `c1coc(CSSCc2ccco2)c1`, the “hERG current change (%, negative = inhibition) at 10uM” value came to 15.8%.
Turning to `Fc1ccc(COc2ccccc2C(=S)N2CCCC2)cc1`, the “hERG current change (%, negative = inhibition) at 10uM” value amounted to 3.38%.
With `COc1cc2ccccc2cc1C(=O)N1CCN(C(C)=O)CC1` the figure was 16.8%.

Source of the values: article PMC4336329 (PLoS ONE, 2015).
